Reference: PubChem BioAssay AID1468 (National Center for Advancing Translational Sciences (NCATS), 2008)
The campaign covered roughly 280,000 compounds. About 1,100 (0.39%) were called active. Inconclusive results, whose numbers are uncertain, are shown with a selection of clear calls. Calls follow the shape of the dose curve; as a rule, active = well fitted inhibition curve with a large enough effect; inconclusive = small, poorly fitted or top-dose-only effect, or effect the other way; inactive = flat fitted curve, though single readings scatter. Potencies of inconclusive entries are left out as doubtful fits.

target: Microtubule-associated protein tau (Homo sapiens) (UniProt P10636); assay: qHTS for Inhibitors of Tau Fibril Formation, Fluorescence Polarization; conditions: K18 P301L tau heparin fibrillization, Alexa594 FP, 6 h; series mostly up to 57.7 µM; also: nearly all actives have a fitted effect of over 55% in size
In short: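 Read-out: fluorescence polarization of Alexa 594-labeled tau (0.24 uM), 555 nm excitation, 632 nm emission. Mixtures held 15 uM unlabeled K18 P301L, compound and 20 uM heparin, pH 7 acetate buffer, incubated 6 hr at 37 C.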
Potency is read from the fitted curve at half-maximal effect; tags tell the direction and shape of the fitted curve.

UniProt P10636, sequence (P10636 whole entry, looked up): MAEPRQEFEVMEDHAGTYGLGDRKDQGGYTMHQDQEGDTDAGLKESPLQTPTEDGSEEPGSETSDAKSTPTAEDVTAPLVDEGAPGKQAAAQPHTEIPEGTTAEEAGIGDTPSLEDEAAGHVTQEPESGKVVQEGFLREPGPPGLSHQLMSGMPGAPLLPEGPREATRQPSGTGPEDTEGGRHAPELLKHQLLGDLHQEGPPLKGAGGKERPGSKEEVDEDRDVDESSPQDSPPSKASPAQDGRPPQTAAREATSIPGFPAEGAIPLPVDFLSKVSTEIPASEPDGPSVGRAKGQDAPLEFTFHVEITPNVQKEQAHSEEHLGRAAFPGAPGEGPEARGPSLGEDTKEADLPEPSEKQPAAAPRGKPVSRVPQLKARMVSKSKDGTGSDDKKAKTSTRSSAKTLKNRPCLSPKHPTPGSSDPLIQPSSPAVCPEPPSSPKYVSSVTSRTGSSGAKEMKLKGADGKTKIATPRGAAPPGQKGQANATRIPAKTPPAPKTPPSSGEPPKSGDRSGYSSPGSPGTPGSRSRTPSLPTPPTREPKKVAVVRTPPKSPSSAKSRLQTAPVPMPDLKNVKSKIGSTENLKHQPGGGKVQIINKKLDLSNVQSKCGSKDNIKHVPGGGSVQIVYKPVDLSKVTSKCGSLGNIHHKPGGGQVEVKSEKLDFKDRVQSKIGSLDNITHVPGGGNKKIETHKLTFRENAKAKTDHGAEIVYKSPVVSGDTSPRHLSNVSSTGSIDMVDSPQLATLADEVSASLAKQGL

SMILES | Potency
COc1ccc(NC(=O)Cn2c(=O)n(-c3cccc(C(F)(F)F)c3)c(=O)c3sccc32)cc1 | inactive
O=C(CSc1nccc(-c2cccs2)n1)Nc1ccc(F)c(Cl)c1 | inconclusive [inhibitor, partial curve]
COc1cccc(CN(Cc2cccnc2)S(=O)(=O)c2ccc(-n3cnnn3)c(C)c2)c1 | inactive
COc1cc(OC)cc(C(=O)Nc2ccc3nc(Nc4cccc(C(F)(F)F)c4)cc(C)c3c2)c1 | inconclusive [inhibitor, single point]
Cc1noc(C)c1CSCC(=O)OCc1nc2ccccc2c(=O)n1CC#N | inconclusive [inhibitor, full curve, poor fit]
CSc1nnc(-c2ccccc2N=Cc2c(C)[nH]n(-c3ccc4ccccc4c3)c2=O)c(=O)[nH]1 | inactive
CC(=O)N1CCN(c2ccc(NCc3ccc4c(c3)OCO4)cc2)CC1 | inconclusive [inhibitor, single point]
O=C(NN1C(=O)/C(=C/C=C/c2ccco2)SC1=S)c1ccccc1O | inconclusive [inhibitor, partial curve]
O=C(N/N=C/c1cn(-c2cccs2)nc1-c1ccccc1)c1ccccc1Br | inconclusive [inhibitor, partial curve]
Cc1noc2ncnc(Sc3ccc(Cl)cc3)c12 | inconclusive [inhibitor, partial curve]
CCOC(=O)c1sc2nc(C)nc(SCC(=O)N(C)C3CCS(=O)(=O)C3)c2c1C (stereo not drawn) | inconclusive [inhibitor, single point]
C#CCN1C(=O)C(O)(CC(=O)c2ccc3c(c2)OCCO3)c2ccccc21 (stereo not drawn) | inactive
Cc1ccccc1N(C)S(=O)(=O)c1nnc(NC(=O)C(C)C)s1 | inactive
CCCCCCCC/C=C\CCCCCCCC(N)=O | inactive
CCOC(=O)c1ccc(N2C(=O)c3n[nH]c(C)c3C2c2ccc(OCC)cc2)cc1 (stereo not drawn) | inconclusive [inhibitor, single point]
CCSS(=O)(=O)c1cccc2cccnc12 | inconclusive [inhibitor, single point]
CCOC(=O)Cn1c(=O)n(CC2CCCO2)c2nc(-c3ccc(C(C)C)cc3)nc(C(N)=O)c21 (stereo not drawn) | inactive
COc1cc(NC(=O)CC2C(=O)N(c3ccc(Cl)cc3)C(=O)N2Cc2cccs2)cc(OC)c1 (stereo not drawn) | inconclusive [inhibitor, partial curve]
CCN(CC)S(=O)(=O)c1ccc2oc(C(=O)NCC3COc4ccccc4O3)c(C)c2c1 (stereo not drawn) | inactive
COc1cc(-c2nnn(CC(=O)Nc3ccc(OC(F)(F)F)cc3)n2)cc(OC)c1OC | active: 17.8 µM
Cc1ccccc1C(=O)Nc1ccc(-c2nc3ccc(C(=O)c4ccccc4)cc3[nH]2)cc1 | active: 28.2 µM
CN1C(C(=O)Nc2ccc(F)cc2F)=CC(c2ccco2)=NS1(=O)=O | inconclusive [inhibitor, partial curve, poor fit]
CCc1ccc2c(c1)c(=O)c(S(=O)(=O)c1ccc(F)cc1)cn2CC(=O)Nc1ccc(C)cc1C | inconclusive [inhibitor, partial curve]

SMILES | Potency
O=C(Nc1nc(-c2ccccc2)cs1)c1ccccc1NS(=O)(=O)c1ccc(F)cc1 | inconclusive [activator, single point]
COc1ccc(N)c2c1C(=O)c1ccccc1C2=O | inconclusive [inhibitor, partial curve, poor fit]
COc1ccc(C(=O)NCc2cccnc2)cc1OC | inactive
NS(=O)(=O)c1ccc(NC(=O)COC(=O)c2cn(-c3ccccc3)nc2-c2ccc(F)cc2)cc1 | active: 12.6 µM
O=C(/C=C/c1ccccc1Cl)Nc1ccc2c(c1)C(=O)NC2=O | inconclusive [inhibitor, partial curve]
COc1ccc(-c2cc(-c3cc(C)ccc3O)[nH]n2)cc1 | inconclusive [inhibitor, single point]
Cc1ccc2c(c1)C(c1ccc(F)cc1)N(C(=O)COc1ccc(Cl)cc1Cl)CC(=O)N2 (stereo not drawn) | inactive
NC(=O)c1ccc(N=C2C(=O)Nc3ccc([N+](=O)[O-])cc32)cc1 | inconclusive [inhibitor, full curve, poor fit]
CC(C)CCNC(=O)c1nnc(Cc2ccc(Cl)cc2)o1 | inactive
CCOc1ccc(Nc2nc3ccccc3c(=O)s2)cc1 | inactive
Cc1ccccc1Nc1nc(N)nc(CSCc2c(C)noc2C)n1 | inactive
CCCCN(CC)CCCNC(=O)Cn1nc(Cc2cccnc2)c2ccccc2c1=O | inconclusive [inhibitor, single point]
O=C(COc1ccccc1Cl)NCC1(N2CCOCC2)CCCCC1 | inactive
COc1cc(OC)c(NC(=O)C2CCCN(c3ncnc4c3nc3n4CCCCC3)C2)cc1Cl (stereo not drawn) | inactive
CC(NC(=O)/C(C#N)=C/c1cn[nH]c1-c1ccccc1)c1ccccc1 (stereo not drawn) | inconclusive [inhibitor, single point]
COc1ccc(C2=C(C=Nc3c(C)n(C)n(-c4ccccc4)c3=O)C(c3ccccc3C)c3ccccc3O2)cc1OC (stereo not drawn) | inconclusive [activator, full curve, poor fit]
CC/S(=N\S(=O)(=O)c1ccc(C)cc1)c1ccccc1 (stereo not drawn) | inactive
CC(C)(C)C1CCC(=NNc2nc3ccccc3[nH]2)CC1 (stereo not drawn) | inactive
CCOC(=O)c1sc(NC(=O)Nc2ccc(Cl)cc2)nc1C | inconclusive [inhibitor, full curve]
CCN(c1cccc(C)c1)S(=O)(=O)c1ccc2[nH]cc(C(=O)NCCCOC)c(=O)c2c1 | inconclusive [inhibitor, partial curve]
COc1cccc(/C=C/C(=O)OCC(=O)Nc2ccc(Cl)c(S(=O)(=O)N(C)C)c2)c1 | inconclusive [inhibitor, partial curve]
CSc1ccc(N=Nc2c(C)[nH]n(C)c2=O)cc1 | inactive
CCn1c2ccccc2c2cc(N=C3SC(CC(=O)Nc4ccccc4OC)C(=O)N3CCOC)ccc21 (stereo not drawn) | inconclusive [activator, partial curve, poor fit]

SMILES | Potency
O=C(Cn1cc(S(=O)(=O)Cc2cccc(Cl)c2)c2ccccc21)NCCc1ccccc1 | inactive
COc1ccc(C2(CNC(=O)/C=C\c3ccco3)CCCC2)cc1OC | inconclusive [inhibitor, partial curve]
Cn1c(=O)[nH]c(=O)c2c1nc(N1CCOCC1)n2CCSc1nc2ccccc2[nH]1 | inconclusive [inhibitor, full curve, poor fit]
Nc1cc(S(=O)(=O)Nc2cc(Cl)ccc2Cl)ccc1N1CCOCC1 | inconclusive [inhibitor, partial curve]
Cc1cccc(NC(=O)c2ccccc2OCC(=O)c2ccc(F)cc2)c1 | inconclusive [inhibitor, partial curve, poor fit]
CNC(=O)C1C(=S)NC(N)=C(C#N)C1c1ccccc1 (stereo not drawn) | active: 15.8 µM
CCC1CN(C(=O)N2CCC(C(=O)NCc3cccc(C)c3)CC2)c2ccccc2O1 (stereo not drawn) | inactive
C=C(C)CSc1nc2sc3c(c2c(=O)n1-c1ccccc1)CC(C(C)C)OC3 (stereo not drawn) | inconclusive [inhibitor, single point]
CC1=C(C(=O)Nc2cc(-c3cccc(F)c3)[nH]n2)C2(CCCCC2)OC1=O | inactive
COc1ccc(OC)c(NC(=O)/C=C/c2ccccc2[N+](=O)[O-])c1 | inconclusive [activator, single point]
COc1ccc(NS(=O)(=O)c2cccc(NC(=O)CCS(=O)(=O)c3ccccc3)c2)cc1 | inconclusive [inhibitor, full curve, poor fit]
COc1ccc(-c2ccc(=O)n(CC(=O)NC3CCc4ccccc43)n2)cc1OC (stereo not drawn) | inconclusive [inhibitor, single point]
CC(C)(C)C1CCc2c(sc(NC(=O)Cn3nnc(-c4ccccc4F)n3)c2C#N)C1 (stereo not drawn) | inconclusive [inhibitor, partial curve]
CCCc1nc2sc3c(c2c(=O)n1NC(=O)c1ccco1)CC(C)(C)OC3 | inactive
CNC(=O)c1ccccc1NC(=O)c1cccc(S(=O)(=O)N2CCC(C)CC2)c1 | inconclusive [inhibitor, single point]
COc1cc(Cl)cc(/C=C/c2ccc3ccccc3n2)c1OC(C)=O | inconclusive [activator, partial curve]
CCc1ccc(-c2nn(CC(=O)Nc3ccccc3)c3c2cnc2ccc(F)cc23)cc1 | inconclusive [inhibitor, partial curve, poor fit]
CCOC(=O)c1sc2ccc(S(=O)(=O)N3CCCCC3)cc2c1N | inconclusive [activator, single point]
COc1ccc(OCC(=O)OCc2cc(=O)n3nc(C4CCCCC4)sc3n2)cc1 | inactive
CC(=O)Nc1cccc(NC(=O)C(=O)NCCc2sc(-c3ccccc3)nc2C)c1 | inconclusive [inhibitor, full curve, poor fit]
COc1cccc(/C=N/NC(=O)c2cc(-c3cccn3C)n[nH]2)c1O | inactive
Cc1onc(-c2ccccc2Cl)c1C(=O)Oc1cc(F)cc(F)c1 | inconclusive [inhibitor, partial curve, poor fit]
